In the supplement of paper PMC4604168 (melanoma cell lines):
This is one part of the list. Most values come without repeats; read them as rough.

How the values were obtained:
Test in all cases: cell count relative to DMSO control; melanoma cells; higher = more viable cells
Conditions in all cases: library dose: standard library concentration; 72 h
SkMel28 = system: SkMel28
SkMel2 = system: SkMel2
SkMel30 = system: SkMel30
SkMel5 = system: SkMel5
UACC257 = system: UACC257
UACC62 = system: UACC62
WM115 = system: WM115
WM1716 = system: WM1716
WM1745 = system: WM1745
WM3526 = system: WM3526
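Further: cells treated in 1,536-well plates, then fixed and DAPI-stained, with nuclei counted from automated high-throughput microscope images.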

| SMILES | cell count (SkMel28) [%] | cell count (SkMel2) [%] | cell count (SkMel30) [%] | cell count (SkMel5) [%] | cell count (UACC257) [%] | cell count (UACC62) [%] | cell count (WM115) [%] | cell count (WM1716) [%] | cell count (WM1745) [%] | cell count (WM3526) [%] |
| --- | --- | --- | --- | --- | --- | --- | --- | --- | --- | --- |
| CC(C)C[C@H](NC(=O)[C@H](Cc1ccccc1)NC(=O)c1cnccn1)B(O)O [Bortezomib] + CN(NC(=O)CC(=O)NN(C)C(=S)c1ccccc1)C(=S)c1ccccc1 [STA4783] (first compound 0.005 µM, partner dose 0.03 µM) | 10.3 | 11.9 | 44.1 | 26.9 | 83 | 38.5 | 20.2 | 23.3 | 19.8 | 39.9 |
| COc1ccc(C2=N[C@@H](c3ccc(Cl)cc3)[C@@H](c3ccc(Cl)cc3)N2C(=O)N2CCNC(=O)C2)c(OC(C)C)c1 [Nutlin-3] + Cc1ccc(NC(=O)c2cccc(N(C)C)c2)cc1NC(=O)c1ccc(O)cc1 [ZM336372] (first compound 0.5 µM, partner dose 10 µM) | 76.3 | 81.6 | 105 | 93.4 | 90 | 72.2 | 74.6 | 112 | 92.2 | 81.4 |
| Cc1cn(-c2cc(NC(=O)c3ccc(C)c(Nc4nccc(-c5cccnc5)n4)c3)cc(C(F)(F)F)c2)cn1 [nilotinib] + Clc1ccc(Nc2nnc(Cc3ccncc3)c3ccccc23)cc1 [vatalanib] (first compound 1 µM, partner dose 10 µM) | 76.3 | 81.4 | 71.2 | 52.1 | 77.3 | 72.1 | 82.4 | 91.6 | 60.2 | 70.2 |
| Cn1c(=O)n(-c2ccc(C(C)(C)C#N)cc2)c2c3cc(-c4cnc5ccccc5c4)ccc3ncc21 + CCCS(=O)(=O)Nc1ccc(F)c(C(=O)c2c[nH]c3ncc(Cl)cc23)c1F [PLX4720] (first compound 0.02 µM, partner dose 0.4 µM) | 43.8 | 71.4 | 57.9 | 70.6 | 106 | 65.1 | 62.2 | 69.3 | 69.3 | 52 |
| COc1ccc(C2=N[C@@H](c3ccc(Cl)cc3)[C@@H](c3ccc(Cl)cc3)N2C(=O)N2CCNC(=O)C2)c(OC(C)C)c1 [Nutlin-3] + Nc1nc(F)nc2c1ncn2[C@@H]1O[C@H](CO)[C@@H](O)[C@@H]1O [fludarabine] (first compound 0.5 µM, partner dose 1 µM) | 2.64 | 2.09 | 15.5 | 20.5 | 30.4 | 43 | 87.6 | 83.4 | 86.9 | 27.7 |
| Cc1cc(Nc2cc(N3CCN(C)CC3)nc(/C=C/c3ccccc3)n2)n[nH]1 + OCc1c[nH]c2ccccc12 [Indole-3-carbinol] (first compound 0.2 µM, partner dose 4 µM) | 55.2 | 76.4 | 78.7 | 70.8 | 100 | 76.9 | 54.2 | 88 | 80.4 | 59.1 |
| CC(C)C[C@H](NC(=O)[C@H](Cc1ccccc1)NC(=O)c1cnccn1)B(O)O [Bortezomib] + Cc1ccc(NC(=O)c2cccc(N(C)C)c2)cc1NC(=O)c1ccc(O)cc1 [ZM336372] (first compound 0.005 µM, partner dose 10 µM) | 50.6 | 53.2 | 33.6 | 18.8 | 73.6 | 65.2 | 27.8 | 28.5 | 16.4 | 31 |
| Cc1cn(-c2cc(NC(=O)c3ccc(C)c(Nc4nccc(-c5cccnc5)n4)c3)cc(C(F)(F)F)c2)cn1 [nilotinib] + Nc1ncn([C@H]2C[C@H](O)[C@@H](CO)O2)c(=O)n1 [decitabine] (first compound 1 µM, partner dose 0.5 µM) | 88.8 | 103 | 108 | 79.5 | 115 | 74 | 81.2 | 67 | 87.7 | 83.1 |
| Cc1cc(Nc2cc(N3CCN(C)CC3)nc(/C=C/c3ccccc3)n2)n[nH]1 + C#Cc1cccc(Nc2ncnc3cc(OCCOC)c(OCCOC)cc23)c1 [erlotinib] (first compound 0.2 µM, partner dose 4 µM) | 35.5 | 61.7 | 49.4 | 52.3 | 83.1 | 48.1 | 39.6 | 66.3 | 36.1 | 57.5 |
| Cc1cn(-c2cc(NC(=O)c3ccc(C)c(Nc4nccc(-c5cccnc5)n4)c3)cc(C(F)(F)F)c2)cn1 [nilotinib] + C[C@@H](N)c1ccc(C(=O)Nc2ccnc3[nH]ccc23)cc1 [RKI983] (first compound 1 µM, partner dose 2 µM) | 59.3 | 75.4 | 74.6 | 38 | 55.3 | 70.7 | 84.2 | 43.6 | 38.1 | 66.9 |
| COc1ccc(C2=N[C@@H](c3ccc(Cl)cc3)[C@@H](c3ccc(Cl)cc3)N2C(=O)N2CCNC(=O)C2)c(OC(C)C)c1 [Nutlin-3] + NC(=O)Nc1cc(-c2cccc(F)c2)sc1C(=O)N[C@H]1CCCNC1 [AZD7762] (first compound 0.5 µM, partner dose 0.1 µM) | 33.1 | 97.8 | 70.7 | 69.3 | 77.2 | 53.2 | 47.5 | 51.5 | 57.2 | 59 |
| CC(C)C[C@H](NC(=O)[C@H](Cc1ccccc1)NC(=O)c1cnccn1)B(O)O [Bortezomib] + CO[C@@H]1[C@H](N(C)C(=O)c2ccccc2)C[C@H]2O[C@]1(C)n1c3ccccc3c3c4c(c5c6ccccc6n2c5c31)C(=O)NC4 [Midostaurin] (first compound 0.005 µM, partner dose 0.4 µM) | 29.4 | 17 | 35.4 | 29.6 | 53.1 | 45.8 | 19.7 | 13.4 | 11.7 | 22.3 |
| CC(C)C[C@H](NC(=O)[C@H](Cc1ccccc1)NC(=O)c1cnccn1)B(O)O [Bortezomib] + C[C@@H]1CCN(C(=O)CC#N)C[C@@H]1N(C)c1ncnc2[nH]ccc12 [CP690550] (first compound 0.005 µM, partner dose 5 µM) | 45.6 | 47.5 | 36.6 | 37.8 | 78.9 | 85.4 | 38.1 | 26 | 22.6 | 21.5 |
| CC(C)C[C@H](NC(=O)[C@H](Cc1ccccc1)NC(=O)c1cnccn1)B(O)O [Bortezomib] + O=C(O)c1ccc2c(c1)nc(Nc1cccc(Cl)c1)c1ccncc12 [CX4945] (first compound 0.005 µM, partner dose 2 µM) | 22.3 | 60.1 | 37.8 | 22.1 | 67 | 50.2 | 24.6 | 21.1 | 21.4 | 32.9 |
| Cc1cn(-c2cc(NC(=O)c3ccc(C)c(Nc4nccc(-c5cccnc5)n4)c3)cc(C(F)(F)F)c2)cn1 [nilotinib] + Nc1ccn([C@@H]2O[C@H](CO)[C@@H](O)C2(F)F)c(=O)n1 [gemcitabine] (first compound 1 µM, partner dose 0.002 µM) | 79.8 | 79 | 96.7 | 66.5 | 121 | 75.7 | 73.5 | 67.6 | 71.3 | 82.1 |
| COc1ccc(C2=N[C@@H](c3ccc(Cl)cc3)[C@@H](c3ccc(Cl)cc3)N2C(=O)N2CCNC(=O)C2)c(OC(C)C)c1 [Nutlin-3] + Cc1cc(Nc2cc(N3CCN(C)CC3)nc(/C=C/c3ccccc3)n2)n[nH]1 [ENMD2076] (first compound 0.5 µM, partner dose 0.2 µM) | 40.2 | 86 | 113 | 78.2 | 104 | 46.6 | 60.2 | 75.2 | 61 | 88.4 |
| COc1ccc(C2=N[C@@H](c3ccc(Cl)cc3)[C@@H](c3ccc(Cl)cc3)N2C(=O)N2CCNC(=O)C2)c(OC(C)C)c1 [Nutlin-3] + C[C@]1(c2nc3c(C(N)=O)cccc3[nH]2)CCCN1 [Veliparib] (first compound 0.5 µM, partner dose 7 µM) | 51 | 71.7 | 79.3 | 53.7 | 79.1 | 48.2 | 44.9 | 83.1 | 90.1 | 74.1 |
| COc1ccc(C2=N[C@@H](c3ccc(Cl)cc3)[C@@H](c3ccc(Cl)cc3)N2C(=O)N2CCNC(=O)C2)c(OC(C)C)c1 [Nutlin-3] + COc1cc(Nc2ncc(F)c(Nc3ccc4c(n3)NC(=O)C(C)(C)O4)n2)cc(OC)c1OC [Tamatinib] (first compound 0.5 µM, partner dose 2 µM) | 45.9 | 63.3 | 80.7 | 47.1 | 77.3 | 47.3 | 46.3 | 61.7 | 45 | 75.7 |
| Cc1cn(-c2cc(NC(=O)c3ccc(C)c(Nc4nccc(-c5cccnc5)n4)c3)cc(C(F)(F)F)c2)cn1 [nilotinib] + C[C@]1(O)C[C@@H](c2nc(-c3ccc4ccc(-c5ccccc5)nc4c3)c3c(N)nccn32)C1 [OSI906] (first compound 1 µM, partner dose 2 µM) | 45 | 61.3 | 74.3 | 53.2 | 88.5 | 60 | 82 | 78.8 | 42.3 | 49 |
| CC(C)C[C@H](NC(=O)[C@H](Cc1ccccc1)NC(=O)c1cnccn1)B(O)O [Bortezomib] + Nc1cccc2c1CN(C1CCC(=O)NC1=O)C2=O [lenalidomide] (first compound 0.005 µM, partner dose 5 µM) | 36.7 | 54.6 | 35 | 37.7 | 86.2 | 63.1 | 21.6 | 20.6 | 34.5 | 31.2 |
| COc1ccc(C2=N[C@@H](c3ccc(Cl)cc3)[C@@H](c3ccc(Cl)cc3)N2C(=O)N2CCNC(=O)C2)c(OC(C)C)c1 [Nutlin-3] + C#Cc1cccc(Nc2ncnc3cc(OCCOC)c(OCCOC)cc23)c1 [erlotinib] (first compound 0.5 µM, partner dose 4 µM) | 40.9 | 79.8 | 77.9 | 65.5 | 90.2 | 35.1 | 79.2 | 72.9 | 52 | 65.5 |
